# Whole data set: some 33,000 sequences, median “E-score (-0.5 to 0.5)” near -0.032, cut for the highest 2% near 0.36. Some of the results follow.
# Molecular target: T1, Sko1 (UniProt Q02100)
# T1 sequence: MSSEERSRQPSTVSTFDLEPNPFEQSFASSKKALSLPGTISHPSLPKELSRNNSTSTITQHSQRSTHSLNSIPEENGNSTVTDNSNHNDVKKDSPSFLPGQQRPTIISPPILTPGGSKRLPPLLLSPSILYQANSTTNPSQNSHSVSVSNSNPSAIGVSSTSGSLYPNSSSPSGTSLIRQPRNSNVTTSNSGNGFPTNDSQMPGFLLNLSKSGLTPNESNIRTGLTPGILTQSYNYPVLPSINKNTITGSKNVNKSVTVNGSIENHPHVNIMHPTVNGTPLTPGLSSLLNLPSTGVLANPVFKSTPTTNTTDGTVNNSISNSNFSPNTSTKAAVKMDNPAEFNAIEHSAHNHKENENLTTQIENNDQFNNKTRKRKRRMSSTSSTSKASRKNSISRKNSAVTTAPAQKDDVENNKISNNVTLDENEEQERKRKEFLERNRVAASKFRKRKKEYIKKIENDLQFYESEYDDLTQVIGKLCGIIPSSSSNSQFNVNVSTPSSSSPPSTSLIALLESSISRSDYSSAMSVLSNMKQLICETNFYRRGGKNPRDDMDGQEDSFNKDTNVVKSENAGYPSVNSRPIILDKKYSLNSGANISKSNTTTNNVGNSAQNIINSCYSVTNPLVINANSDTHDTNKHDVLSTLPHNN
# Experiment: PBM E-score (8-mer binding enrichment) (E-score (-0.5 to 0.5)); higher = stronger / more preferred TF binding; most listed sequences are background and not binding sites
# Conditions: protein concentration: 200 nM; construct: GST-full length
# In short: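 PURExpress in vitro transcription/translation supplied GST-tagged yeast transcription factors, either full-length or DNA-binding domain. Applied at about 100-200 nM to universal all-10-mer Agilent arrays double-stranded by primer extension, the bound protein was detected with fluorescent anti-GST. E-scores, modified Wilcoxon-Mann-Whitney statistics, were given by the Universal PBM Analysis Suite to ungapped eight-base words pooled with their reverse complements after masliner normalisation.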
row,Sequence,PBM E-score
1,CGGGGCAC,-0.179
2,CCGGAATC,-0.283
3,CACCCACA,0.00864
4,GATTATCC,-0.216
5,CCACGGGA,-0.164
6,AGGTACAC,-0.214
7,TAGACCCA,0.0152
8,AGGAAGGG,-0.288
9,ACTGTAGC,-0.173
10,AAAAAAAA,0.103
11,CTCTAGCA,0.0554
12,CGGCCGTA,-0.169
13,AATCTTGG,-0.159
14,CCGCCAGG,-0.18
15,TCCTCCCA,-0.226
16,CAGTGAGC,-0.134
17,AGGGGTTG,-0.184
18,ATGGTACA,-0.0602
19,TGCGACAA,0.112
20,GAAGAAGC,-0.116
21,ACCCGAAC,-0.00662
22,CGCCCCCA,-0.137
23,GCCGGGGA,-0.197
24,GGAGCCAA,-0.247
25,AACGCGGA,0.0471

row,Sequence,PBM E-score
1,GCTACTAA,0.0526
2,ATAGCATA,0.192
3,ATTAGGGG,-0.0496
4,CGGTCCCA,-0.281
5,CCGGCGAA,-0.0327
6,ACCCTGTC,-0.29
7,AGTAAGTA,0.193
8,AATCCGGG,-0.31
9,CTCTCCCC,-0.333
10,CGTCACGA,0.443
11,AGGCACTC,-0.232
12,CGGCTACA,-0.0312
13,GCTTTTCA,-0.13
14,AATAGATA,0.199
15,AATGTTGT,0.156
16,GTCACGTA,0.421
17,CTCGCGAG,-0.253
18,ACTGGTTC,-0.132
19,CCGCTGCG,-0.151
20,GGAGCCAC,-0.3
21,ACTATTAT,0.0509
22,ATGGTCTC,-0.119
23,ATCGAGCA,-0.112
24,CAAATGGG,-0.0572
25,CGCAGGCA,-0.132

row,Sequence,PBM E-score
1,ATACGTAA,0.491
2,CCAACCAG,-0.205
3,CACGCCGA,-0.213
4,CTCTCTAC,-0.0204
5,CCGACACG,-0.104
6,ATGGGTGA,-0.13
7,GTTCCACA,-0.15
8,GGGCACCA,-0.19
9,CGGTCGCA,-0.192
10,AAAAAATA,0.191
11,AGTTCTCA,-0.0606
12,TATACCAA,0.0595
13,GTATTGAA,0.266
14,CGGCGAAG,-0.223
15,TCTGGCAA,-0.261
16,GCTATCAA,0.00896
17,CGCGCGTA,0.19
18,AACAAATC,0.175
19,GTCTACCA,0.0128
20,TGTCTCAA,-0.0526
21,AGGTTATG,0.0862
22,AGCTCGAT,-0.139
23,GATCTGGA,-0.116
24,GAAGCTAA,0.0228
25,CTGTAAAA,0.0417

row,Sequence,PBM E-score
1,GCTACTCC,-0.343
2,ACAGTATA,0.0494
3,GGCATCTA,-0.053
4,GGACGTCA,0.466
5,ACAAACTA,0.00391
6,ATTCTTAG,0.0309
7,ACACCCTG,-0.252
8,CCCCCGTC,-0.201
9,AATTCTCG,0.0707
10,GGCATGAA,-0.00295
11,CCGCGTCC,-0.00078
12,AGAACGCC,-0.0918
13,AATGTAAT,0.257
14,AATGCAAA,0.0649
15,GATTAACC,-0.125
16,GATATAAA,0.166
17,ACGGCAAC,-0.0493
18,GATTATGC,-0.121
19,AAGAACCT,-0.0484
20,CCCGAGCG,-0.186
21,CCTAATGA,0.129
22,ACTATTGG,-0.179
23,CTATGTCA,0.338
24,ACAACTTG,-0.0253
25,AGGCTTTC,-0.0108

row,Sequence,PBM E-score
1,CGTTGAGA,0.0138
2,ACACCACA,0.114
3,ACCCTTGC,-0.172
4,GTAATTAA,0.237
5,GGTATCTA,0.0817
6,CTAACGTA,0.374
7,AGAGTGAC,0.122
8,TCATATGA,0.285
9,ACGCTCTC,-0.0672
10,GGAAACGA,0.0328
11,AAGCAGCC,-0.247
12,AGAATTAA,0.0421
13,AATGCCAT,0.157
14,AACCGGTT,-0.161
15,TCCGCCGA,-0.17
16,CAGGTCAG,-0.171
17,GCAGGTCA,-0.155
18,AACCGGGT,-0.303
19,ACACAGAA,-0.0522
20,TATCCAGA,-0.0266
21,CCGGGCCG,-0.27
22,AACAGAAC,0.0202
23,CACCTTAC,0.0212
24,AGGCTCTG,-0.222
25,TAGAAGGA,-0.19

row,Sequence,PBM E-score
1,ACACATGA,0.203
2,ATTGATTC,0.167
3,ATAGCGTG,-0.023
4,AAATGGTG,0.0316
5,TCAACTGA,-0.0387
6,AGGATAGC,-0.103
7,ACCGTCTG,-0.0712
8,ATAGGTGC,-0.114
9,TCGTAGAA,-0.00376
10,AGGCATAG,-0.159
11,CATTACAG,-0.0317
12,CCCCGGCA,-0.251
13,CGAGATAA,0.168
14,CGGGTTAA,-0.056
15,GGGGTGTA,-0.118
16,CGCCATCA,0.0661
17,AGCACCTA,-0.127
18,CATGACGG,0.326
19,ACTGTATC,0.0294
20,AACGCACC,0.0328
21,ATACAGTC,-0.0477
22,AAAAGGGG,-0.292
23,GGAAATAA,0.143
24,ATCTTCGC,0.1
25,ATGGAATG,-0.0704

row,Sequence,PBM E-score
1,CGAAAACA,0.0568
2,CAGGCTAA,-0.0734
3,GTTACCTA,0.0877
4,CGAGAGCA,-0.0844
5,ATTTCCGC,-0.143
6,AGATCCGA,0.0339
7,AACCGGTC,-0.146
8,CTTGAAAA,0.0514
9,AATTTCCC,-0.108
10,ATCCCCTA,-0.217
11,AGACCGGA,-0.243
12,CGCGCCCG,-0.264
13,ACGCTCAA,0.0466
14,AGCACAAG,-0.102
15,AAGCCTGT,-0.105
16,CGACTGTC,-0.188
17,CGCCGCAC,-0.0811
18,CGCAAATC,-0.0189
19,CTGCCACA,-0.171
20,GCGAGCAA,-0.231
21,CTCTAAAC,0.0109
22,AACTCTAA,0.0874
